Assay results: US20220213213A1 (published 2022)

T1: 5T4-Fc (obtained from Peter L. Stern, University of Manchester) (human, UniProt Q13641 32-355)
T1 construct: also called h5T4-Fc; recombinant 5T4; not shown: Fc part not specified
T1 sequence (looked up): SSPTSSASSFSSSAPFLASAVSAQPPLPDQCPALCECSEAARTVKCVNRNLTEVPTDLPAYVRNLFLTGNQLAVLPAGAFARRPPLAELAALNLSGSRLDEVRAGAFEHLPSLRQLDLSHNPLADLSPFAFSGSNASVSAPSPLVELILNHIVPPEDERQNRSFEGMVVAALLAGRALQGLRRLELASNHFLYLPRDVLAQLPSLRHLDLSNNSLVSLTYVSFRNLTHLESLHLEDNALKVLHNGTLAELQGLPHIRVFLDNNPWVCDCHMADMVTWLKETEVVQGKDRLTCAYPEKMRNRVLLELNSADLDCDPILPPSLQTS


Target: T1, 5T4-Fc (obtained from Peter L. Stern, …)
Test: dual ELISA: coated 5T4-Fc, detection with CD137-bio
Procedure: Plates (#655074, Greiner Bio-One GmbH, Germany) were pre-coated with 0.5 μg/ml 5T4-Fc (obtained from Professor Peter Stern, University of Manchester) overnight. CD137-5T4 bsAb were diluted from 8 to 2×10⁻³ μg/ml in 1:4 dilutions and added in duplicates of 50 μl to each well. CD137-bio (Ancell #502-030) was used as detection antibody at 0.5 μg/ml and the binding was detected with Streptavidin-HRP (Pierce #21126). The ELISA was developed with SuperSignal ELISA PICO Chemiluminescent substrate (Thermo Scientific Pierce, Rockford, Ill. USA) during 2-10 minutes and read in an automated microplate based multi-detection reader (FLUOstar OPTIMA, Netherlands).

Binder	EC50 [nM]
1206-1202 (bispecific antibody) chain 1: EVQLLESGGGLVQPGGSLRLSCAASGFTFSGSSMSWVRQAPGKGLEWVSSIYYSGSGTYYADSVKGRFTISRDNSKNTLYLQMNSLRAEDTAVYYCARYGRNVHPYNLDYWGQGTLVTVSS[no letters for human IgG1 constant region with changes]GGGGSGGGGSEVQLLESGGGLVQPGGSLRLSCAASGFTFYGSSMSWVRQAPGKGLEWVSSIYYGSSGTYYADSVKGRFTISRDNSKNTLYLQMNSLRAEDTAVYYCARSYYGYFDYWGQGTLVTVSSGGGGSGGGGSGGGGSDIQMTQSPSSLSASVGDRVTITCRASQSISSYLNWYQQKPGKAPKLLIYAASSLQSGVPSRFSGSGSGTDFTLTISSLQPEDFATYYCQQYYTVVPFTFGQGTKLEIK chain 2: DIQMTQSPSSLSASVGDRVTITCRASQSISSYLNWYQQKPGKAPKLLIYAASSLQSGVPSRFSGSGSGTDFTLTISSLQPEDFATYYCQQGYYYLPTFGQGTKLEIKRTVAAPSVFIFPPSDEQLKSGTASVVCLLNNFYPREAKVQWKVDNALQSGNSQESVTEQDSKDSTYSLSSTLTLSKADYEKHKVYACEVTHQGLSSPVTKSFNRGEC	0.28
1202-1206 (bispecific antibody) chain 1: EVQLLESGGGLVQPGGSLRLSCAASGFTFYGSSMSWVRQAPGKGLEWVSSIYYGSSGTYYADSVKGRFTISRDNSKNTLYLQMNSLRAEDTAVYYCARSYYGYFDYWGQGTLVTVSS[no letters for human IgG1 constant region with changes]GGGGSGGGGSEVQLLESGGGLVQPGGSLRLSCAASGFTFSGSSMSWVRQAPGKGLEWVSSIYYSGSGTYYADSVKGRFTISRDNSKNTLYLQMNSLRAEDTAVYYCARYGRNVHPYNLDYWGQGTLVTVSSGGGGSGGGGSGGGGSDIQMTQSPSSLSASVGDRVTITCRASQSISSYLNWYQQKPGKAPKLLIYAASSLQSGVPSRFSGSGSGTDFTLTISSLQPEDFATYYCQQGYYYLPTFGQGTKLEIK chain 2: DIQMTQSPSSLSASVGDRVTITCRASQSISSYLNWYQQKPGKAPKLLIYAASSLQSGVPSRFSGSGSGTDFTLTISSLQPEDFATYYCQQYYTVVPFTFGQGTKLEIKRTVAAPSVFIFPPSDEQLKSGTASVVCLLNNFYPREAKVQWKVDNALQSGNSQESVTEQDSKDSTYSLSSTLTLSKADYEKHKVYACEVTHQGLSSPVTKSFNRGEC	0.61
1204-1208 (bispecific antibody) chain 1: not shown chain 2: DIQMTQSPSSLSASVGDRVTITCRASQSISSYLNWYQQKPGKAPKLLIYAASSLQSGVPSRFSGSGSGTDFTLTISSLQPEDFATYYCQQSVPHYPFTFGQGTKLEIKRTVAAPSVFIFPPSDEQLKSGTASVVCLLNNFYPREAKVQWKVDNALQSGNSQESVTEQDSKDSTYSLSSTLTLSKADYEKHKVYACEVTHQGLSSPVTKSFNRGEC	2.34
1202-1208 (bispecific antibody) chain 1: not shown chain 2: DIQMTQSPSSLSASVGDRVTITCRASQSISSYLNWYQQKPGKAPKLLIYAASSLQSGVPSRFSGSGSGTDFTLTISSLQPEDFATYYCQQYYTVVPFTFGQGTKLEIKRTVAAPSVFIFPPSDEQLKSGTASVVCLLNNFYPREAKVQWKVDNALQSGNSQESVTEQDSKDSTYSLSSTLTLSKADYEKHKVYACEVTHQGLSSPVTKSFNRGEC	2.25
1204-1206 (bispecific antibody) chain 1: EVQLLESGGGLVQPGGSLRLSCAASGFTFSSYYMGWVRQAPGKGLEWVSGIGSYYGYTGYADSVKGRFTISRDNSKNTLYLQMNSLRAEDTAVYYCARAYYDYNYYYAYFDYWGQGTLVTVSS[no letters for human IgG1 constant region with changes]GGGGSGGGGSEVQLLESGGGLVQPGGSLRLSCAASGFTFSGSSMSWVRQAPGKGLEWVSSIYYSGSGTYYADSVKGRFTISRDNSKNTLYLQMNSLRAEDTAVYYCARYGRNVHPYNLDYWGQGTLVTVSSGGGGSGGGGSGGGGSDIQMTQSPSSLSASVGDRVTITCRASQSISSYLNWYQQKPGKAPKLLIYAASSLQSGVPSRFSGSGSGTDFTLTISSLQPEDFATYYCQQGYYYLPTFGQGTKLEIK chain 2: DIQMTQSPSSLSASVGDRVTITCRASQSISSYLNWYQQKPGKAPKLLIYAASSLQSGVPSRFSGSGSGTDFTLTISSLQPEDFATYYCQQSVPHYPFTFGQGTKLEIKRTVAAPSVFIFPPSDEQLKSGTASVVCLLNNFYPREAKVQWKVDNALQSGNSQESVTEQDSKDSTYSLSSTLTLSKADYEKHKVYACEVTHQGLSSPVTKSFNRGEC	0.54
1200-1208 (bispecific antibody) chain 1: not shown chain 2: DIQMTQSPSSLSASVGDRVTITCRASQSISSYLNWYQQKPGKAPKLLIYAASSLQSGVPSRFSGSGSGTDFTLTISSLQPEDFATYYCQQYYIPHTFGQGTKLEIKRTVAAPSVFIFPPSDEQLKSGTASVVCLLNNFYPREAKVQWKVDNALQSGNSQESVTEQDSKDSTYSLSSTLTLSKADYEKHKVYACEVTHQGLSSPVTKSFNRGEC	16.8

The next lines start with the values.

EC50 [nM]	Binder
0.66	1206-1204 (bispecific antibody) chain 1: EVQLLESGGGLVQPGGSLRLSCAASGFTFSGSSMSWVRQAPGKGLEWVSSIYYSGSGTYYADSVKGRFTISRDNSKNTLYLQMNSLRAEDTAVYYCARYGRNVHPYNLDYWGQGTLVTVSS[no letters for human IgG1 constant region with changes]GGGGSGGGGSEVQLLESGGGLVQPGGSLRLSCAASGFTFSSYYMGWVRQAPGKGLEWVSGIGSYYGYTGYADSVKGRFTISRDNSKNTLYLQMNSLRAEDTAVYYCARAYYDYNYYYAYFDYWGQGTLVTVSSGGGGSGGGGSGGGGSDIQMTQSPSSLSASVGDRVTITCRASQSISSYLNWYQQKPGKAPKLLIYAASSLQSGVPSRFSGSGSGTDFTLTISSLQPEDFATYYCQQSVPHYPFTFGQGTKLEIK chain 2: DIQMTQSPSSLSASVGDRVTITCRASQSISSYLNWYQQKPGKAPKLLIYAASSLQSGVPSRFSGSGSGTDFTLTISSLQPEDFATYYCQQGYYYLPTFGQGTKLEIKRTVAAPSVFIFPPSDEQLKSGTASVVCLLNNFYPREAKVQWKVDNALQSGNSQESVTEQDSKDSTYSLSSTLTLSKADYEKHKVYACEVTHQGLSSPVTKSFNRGEC
12.7	1620-1208 (bispecific antibody) chain 1: not shown chain 2: DIQMTQSPSSLSASVGDRVTITCRASQSISSYLNWYQQKPGKAPKLLIYAASSLQSGVPSRFSGSGSGTDFTLTISSLQPEDFATYYCQQGVGPYTFGQGTKLEIKRTVAAPSVFIFPPSDEQLKSGTASVVCLLNNFYPREAKVQWKVDNALQSGNSQESVTEQDSKDSTYSLSSTLTLSKADYEKHKVYACEVTHQGLSSPVTKSFNRGEC
1.4	1214-1208 (bispecific antibody) chain 1: not shown chain 2: DIQMTQSPSSLSASVGDRVTITCRASQSISSYLNWYQQKPGKAPKLLIYAASSLQSGVPSRFSGSGSGTDFTLTISSLQPEDFATYYCQQDAYPHTFGQGTKLEIKRTVAAPSVFIFPPSDEQLKSGTASVVCLLNNFYPREAKVQWKVDNALQSGNSQESVTEQDSKDSTYSLSSTLTLSKADYEKHKVYACEVTHQGLSSPVTKSFNRGEC
